Assay results as given in PubChem BioAssay AID588855 (National Center for Advancing Translational Sciences (NCATS), 2011).
In all, about 410,000 compounds went through this assay and about 5,000 (1.2%) were called active. This list was built around the results that the source calls inconclusive (neither active nor inactive); the mix of calls is not that of the screen. Calls follow the shape of the dose curve; as a rule, active = well fitted inhibition curve with a large enough effect; inconclusive = small, poorly fitted or top-dose-only effect; inactive = no such curve, though single readings can be large or run the other way. A potency beside an inconclusive call is a rough fit, not a confirmed value.

assay: qHTS for Inhibitors of TGF-b; settings: HepG2 CAGA-GFP TGF-b/SMAD3 reporter, GFP fluorescence, 18 h, TGF-beta stimulated, 500 pg/mL final; series mostly up to 46.1 µM; also: nearly all actives have a fitted effect of over 65% in size
Procedure, shortened: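 Inhibition of TGF-beta-driven CAGA-GFP reporter expression in HEPG2 cells is measured by cellular GFP fluorescence after 18 h stimulation with 500 pg/mL recombinant TGF-beta in 1% FBS medium at 37 degrees C.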
Potency is read from the fitted curve at half-maximal effect; tags tell the direction and shape of the fitted curve.

Compound | Potency
CCOC(=O)C1=Nc2ccccc2C1=[N+]=[N-] | inconclusive: 35.5 µM [inhibitor, single point]
N#Cc1ccc(C(=O)N/N=C/c2cn(CC(=O)O)c3ccccc23)c(F)c1 | inactive
O=C(NCCNc1ccc([N+](=O)[O-])cc1)c1cccc(Br)c1 | inactive
Cc1ccc(C)c(N2CCN(C(=O)CCC(=O)N3CCOc4ccc(Cl)cc43)CC2)c1 | inconclusive: 35.5 µM [inhibitor, single point]
Cc1ccc(OCC(=O)NC2CCCC2)c(C)c1 | inconclusive: 35.5 µM [inhibitor, single point]
CC(C)Cc1ccc(CN2CCCC(NC(=O)c3cnc4ccccn4c3=O)C2)cc1 (stereo not given) | inconclusive: 2.51 µM [inhibitor, full curve]
CC(C)/C=N/Nc1nc(-c2ccc(Br)cc2)cs1 | inconclusive: 22.4 µM [inhibitor, single point]
N/C(=N\OS(=O)(=O)c1ccccc1)c1ccccn1 | inconclusive: 3.16 µM [inhibitor, single point]
C[C@@H]1CCCCO[C@H](CN(C)C(=O)Nc2ccc3c(c2)OCO3)[C@@H](C)CN([C@H](C)CO)C(=O)c2cc(NS(=O)(=O)c3ccc(F)cc3)ccc2O1 | inactive
O=C(COc1ccc(-c2nnc(N3CCCCC3)c3ccccc23)cc1)N1CCCCC1 | active: 17.8 µM
CCCSc1nc(-c2ccccc2)[nH]c1S(=O)(=O)c1ccc(C)cc1 | inconclusive: 22.4 µM [inhibitor, single point]
Cc1cc2c(cc1C)N(C(=O)CSc1nncn1C)C(C)(C)c1ssc(=S)c1-2 | inconclusive: 12.6 µM [inhibitor, single point]
CC(=O)c1cccc(S(=O)(=O)N2CCC(C(=O)O)(c3ccccc3)CC2)c1 | inconclusive: 7.08 µM [inhibitor, full curve]
COc1ccc([C@H]2CC(=O)C=C(c3ccc(C)c(F)c3)C2)cc1 | inconclusive: 35.5 µM [inhibitor, partial curve, poor fit]
CCOC(=O)CSc1nc2nc(C)cc(C)n2n1 | inactive
Cc1ccc(-c2c(C(=O)NCCc3ccccc3)oc(=O)c3ccccc23)cc1 | inconclusive: 35.5 µM [inhibitor, single point]
CN(C)c1nnnn1-c1cccc(Oc2ncc(C(F)(F)F)cc2Cl)c1 | inactive
CCOC(=O)c1c(C)[nH]c(C(=O)OCC(=O)N2CCCC2=O)c1C | inconclusive: 3.98 µM [inhibitor, partial curve, poor fit]
CCN(C(=O)COC(=O)/C=C/c1ccc(OC(F)F)c(OC)c1)C1CCS(=O)(=O)C1 (stereo not given) | inconclusive: 35.5 µM [inhibitor, single point]
CCCCCn1c(CCNC(=O)c2cccc(C)c2)nc2ccccc21 | inconclusive: 15.8 µM [inhibitor, partial curve, poor fit]
O=C(NCc1ccco1)N1c2ccccc2Sc2ccccc21 | inconclusive: 10 µM [inhibitor, single point]
COc1ccc(OC)c(C(=O)CSc2nnc(Cc3cccs3)n2C)c1 | inconclusive: 28.2 µM [inhibitor, single point]

Compound | Potency
CCOc1ccc(Nc2oc(/C=C/c3cccc(OC)c3)nc2C#N)cc1 | inconclusive: 7.08 µM [inhibitor, partial curve, poor fit]
CCN(c1ccccc1)S(=O)(=O)c1ccc(C(=O)N2CCCC(C(F)(F)F)C2)cc1 (stereo not given) | inactive
COc1ccc(/C=C(\NC(=O)c2ccc([N+](=O)[O-])cc2)C(=O)NCCCn2ccnc2)cc1 | inconclusive: 7.08 µM [inhibitor, partial curve]
CC(=O)N1CCc2c(sc3c2c(=O)n(Cc2ccccc2)c(=O)n3Cc2cc(C)ccc2C)C1 | inconclusive: 6.31 µM [inhibitor, partial curve, poor fit]
Cc1ccc(S(=O)(=O)Cn2nnnc2C(C(C)C)N2CCc3ccccc3C2)cc1 (stereo not given) | inconclusive: 14.1 µM [inhibitor, single point]
Nc1nonc1-n1nnc(C(=O)N/N=C/c2ccccn2)c1CNc1ccccc1 | inactive
Cc1c(NC(=O)CSc2ncnc3c2cnn3-c2ccccc2)c(=O)n(-c2ccccc2)n1C | inconclusive: 35.5 µM [inhibitor, single point]
CC1CN(C(=O)N2CCC(C(=O)NCCCc3ccccc3)CC2)c2ccccc2O1 (stereo not given) | inactive
O=C1C=C(c2cccc(Cl)c2O)C[C@@H](c2ccc(Cl)cc2)C1 | inconclusive: 35.5 µM [inhibitor, single point]
O[C@H]1CN(Cc2cccs2)[C@@H](c2ccccc2)C[C@@H]1n1cc(-c2ccc(F)cc2)nn1 | inconclusive: 25.1 µM [inhibitor, single point]
CCN(CC)S(=O)(=O)c1ccc(N2CCOCC2)c(NCC(=O)Nc2ccc(F)cc2)c1 | inactive
Cc1c(Cl)cccc1Nc1nc2ccc(C(=O)c3ccccc3)cc2n2cnnc12 | inconclusive: 3.16 µM [inhibitor, single point]
CCCc1cc(=O)c2c(O)ccc(OC)c2o1 | inactive
CC(C)(C)OC(=O)NC(Cc1ccccc1)C(=O)NC1COC2CC(n3cc(F)c(=O)[nH]c3=O)OC12 (stereo not given) | inactive
O=C(CNC(=O)c1ccco1)N/N=C/c1cc(Br)ccc1O | inactive
O=C(CCSc1nc(-c2ccccc2)c(-c2ccccc2)o1)N1CCCCC1 | inconclusive: 35.5 µM [inhibitor, single point]
Cc1ccccc1NC(=O)c1nc[nH]c1C(=O)NCc1ccccc1 | inconclusive: 11.2 µM [inhibitor, partial curve, poor fit]
CCCNCC(=O)Nc1sc2c(c1C(=O)Nc1c(C)n(C)n(-c3ccccc3)c1=O)CCCC2 | inactive
CCCOc1ccc(N)cc1N | inconclusive: 35.5 µM [inhibitor, single point]
Cc1ccc(NC(=O)Cc2ccc(-c3ccccc3)cc2)nc1 | inconclusive: 11.2 µM [inhibitor, partial curve, poor fit]
CN(C(=O)c1ccc2c(Cl)c3c(nc2c1)CCC3)c1ccccc1F | inconclusive: 14.1 µM [inhibitor, partial curve, poor fit]
COc1ccccc1C(=O)NC(=O)COC(=O)c1ncc(Cl)c(Cl)c1Cl | inactive

Compound | Potency
Cc1cc(C)n(/C(=C/N(C)C)C(=O)c2ccccc2)n1 | inactive
OC1(c2cccc(C(F)(F)F)c2)CCN(Cc2nnnn2Cc2ccccc2)CC1 | inconclusive: 22.4 µM [inhibitor, single point]
CSc1ccccc1-c1nnc(NC(=O)Cc2ccccc2)o1 | inactive
COc1ccc(S(=O)(=O)N2CCOCC2)cc1C(=O)Nc1ccon1 | inconclusive: 35.5 µM [inhibitor, single point]
CN1CCN(C(=O)c2cc(Oc3c(F)c(F)c(F)c(F)c3F)cc(C(=O)N3CCN(C)CC3)c2)CC1 | inconclusive: 11.2 µM [inhibitor, partial curve]
Cc1ccc(/C=C/c2onc(C)c2S(=O)(=O)N2CCC(C(=O)Nc3ccc(Br)c(C)c3)CC2)cc1 | inconclusive: 8.91 µM [inhibitor, partial curve, poor fit]
Cc1cccc(C2=NN(c3ccc(Br)cc3)[C@@H](C(=O)N3CCOC3=O)[C@@H]2c2ccccc2)c1 | inconclusive: 35.5 µM [inhibitor, partial curve, poor fit]
COc1cccc(C(=O)COc2ccc(NC(=O)c3ccccc3)cc2)c1 | inactive
COc1cc(OC)c(-c2oc3ccccc3c(=O)c2O)c(OC)c1 | inconclusive: 35.5 µM [inhibitor, single point]
COC1C(CO)OC(n2c3c(Cl)cccc3c3c4c(c5c6cccc(Cl)c6[nH]c5c32)C(=O)NC4=O)C(O)C1O (stereo not given) | inconclusive: 1.26 µM [inhibitor, partial curve, poor fit]
CC1CCC(C(=O)NC(C(=O)OCC(=O)c2ccc(Br)cc2)C(C)C)CC1 (stereo not given) | inconclusive: 0.112 µM [inhibitor, full curve, poor fit]
Cc1cc(C)c(C(O)c2ncc(-c3cccc(F)c3)[nH]2)c(C)c1 (stereo not given) | inconclusive: 35.5 µM [inhibitor, single point]
Cc1[nH]nc(-c2ccc(OCc3cnn(-c4ccccc4)c3)cc2O)c1Oc1ccc(F)cc1 | inconclusive: 10 µM [inhibitor, partial curve, poor fit]
COc1ccc(C2=NOC(C(=O)Nc3cc(Br)ccc3O)C2)cc1OC (stereo not given) | inconclusive: 35.5 µM [inhibitor, single point]
Cc1cc(C)n(-c2nc(C)c(C)c(=O)n2CC(=O)Nc2ccc(OC(F)(F)F)cc2)n1 | inactive
Cc1nc(N2CCN(C(=O)c3ccco3)CC2)c2c3c(sc2n1)CCCC3 | inconclusive: 35.5 µM [inhibitor, single point]
Cc1ccc(S(=O)(=O)Oc2ccc3ccc(O)cc3c2)cc1 | inconclusive: 14.1 µM [inhibitor, partial curve, poor fit]
C/C(CC(=O)Nc1ccc(N(C)C)cc1)=N\NC(=O)c1ccc(Cl)cc1Cl | inconclusive: 8.91 µM [inhibitor, partial curve, poor fit]
Cc1ccc(NC(=O)Cn2cc(C(=O)C3CC3)c3ccccc32)cc1C | inactive
Cc1cc(C)c(NC(=S)N(CCc2ccncc2)C(C)C)c(C)c1 | inactive
Cc1c(C(=O)OCC(=O)c2c(N)n(CC(C)C)c(=O)n(C)c2=O)oc2ccccc12 | inconclusive: 2 µM [inhibitor, partial curve]
